PubChem BioAssay AID1362 (SRMLSC, 2008)
The list shows a part of the results. These are further read-outs of the screen, such as a control signal, another cell line or another target. No call is given for them. Compounds called inactive in the main read-out are mostly missing here.

Test: growth inhibition of WT strain, primary screen, mitochondrial fusion inhibitor project, WT and mutant strains, chemical genetic (AID 1362); also: tested in S. cerevisiae
Details: mitochondrial fusion phenotypic screen, at 10 µM
Work on `COc1ccc(C2CC(c3cccs3)=NN2C(=O)c2ccc(Br)o2)cc1` (configuration not stated) yielded an inhibition of 41.4%.
With `COc1ccc(C(C)=O)cc1CSc1nc2ccccc2c(=O)n1-c1cccc(C)c1` the inhibition was 31.8%.
With `S=c1nc[nH]c2c1sc1nc(-c3ccccc3)c3c(c12)CCCC3` the inhibition was 93.3%.
Work on `Nc1ccc2nn(-c3ccccc3)nc2c1` yielded an inhibition of 5.2%.
`CC1(C)CC2CC(C)(CN2C(=O)c2cc(-c3ccccc3O)on2)C1` (configuration not stated) gave an inhibition of 40.1%.
In the case of `Clc1ccc(N/N=C/c2cccnc2)cc1`, the inhibition is reported as 56.7%.
Work on `Cc1coc(C)c1C(=O)CC1(O)C(=O)Nc2cc(Cl)cc(Cl)c21` (configuration not stated) yielded an inhibition of 4.65%.
`CCCN1C(=O)c2ccccc2NC1c1ccc(OC)c(CSc2ccccn2)c1` (configuration not stated) showed an inhibition of 27.5%.
Compound `Cc1ncsc1C(=O)Nc1nc2c(s1)CC(C)CC2` (configuration not stated) has an inhibition of -8.69%.
Work on `Cc1ccc(-n2cccc2C(=S)N=P(N(C)C)(N(C)C)N(C)C)cc1` yielded an inhibition of 6.13%.
Compound `CC1CCCCC1NC(=S)Nc1ccc(SC(F)F)cc1` (configuration not stated) has an inhibition of 29.6%.
In the case of `CC1CCN(c2nc(Cl)nc(Nc3ccc([N+](=O)[O-])cc3)n2)CC1`, the inhibition is reported as 9.32%.
Work on `O=C(NC(=S)N1CCN(Cc2ccc3c(c2)OCO3)CC1)c1ccc(Cl)cc1` yielded an inhibition of 38.5%.
With `Cc1cc(C(=O)N2CCc3c([nH]c4ccccc34)C2c2cccc(Cl)c2)nn1C` (configuration not stated) the inhibition was 47.5%.
`CCOC(=O)c1c(-c2cccs2)csc1NC(=O)C(C)(C)C` showed an inhibition of -1.72%.
`CCOC(=O)C1CCN(S(=O)(=O)c2c(C)n[nH]c2C)CC1` showed an inhibition of 0%.
In the case of `COc1cc(NC(=O)c2ccc(C(C)(C)C)cc2)c(OC)cc1NC(=O)CN1CCCCC1`, the inhibition is reported as 64.6%.
For `O=C(CCn1nc(-c2ccccc2)c2ccccc2c1=O)NCC1CCCO1` (configuration not stated), the inhibition was 3.78%.
In the case of `CN(C)c1ccc(N=Nc2ccccc2C(=O)OCC(=O)NCC2CCCCC2)cc1`, the inhibition is reported as 38.4%.
Work on `CCN1/C(=C/c2ccc3cc(C)ccc3[n+]2CC)Sc2cc(C)c(C)cc21` yielded an inhibition of 89%.
Compound `CCCCN(C(=O)c1cccc2c(=O)c(C)c(-c3ccccc3)oc12)c1ccccc1` has an inhibition of 23.4%.
With `COc1cccc2sc(Nc3nc(-c4ccccn4)cs3)nc12` the inhibition was 57.5%.
Compound `CC(C)C(=O)N1CCN(c2ccc(NC(=O)c3ccc([N+](=O)[O-])o3)cc2Cl)CC1` has an inhibition of 90.3%.
Compound `Cc1ccc(C(c2nnnn2CCc2ccccc2)N2CCC(C)CC2)cc1` (configuration not stated) has an inhibition of 7.61%.
Compound `CN(C)C(=O)/C(C#N)=C\c1cc(Br)c(Sc2ccc(Cl)cc2)o1` has an inhibition of 32.9%.
Work on `O=[N+]([O-])c1cc(/C=N/O)ccc1Oc1cccc(Cl)c1` yielded an inhibition of 37.8%.
For `O=C(NCCc1ccc(Cl)cc1)Nc1cccc(Cl)c1`, the inhibition was 23.3%.
Work on `Cc1ccc(-c2cc(C(=O)N3CCCc4ccccc43)no2)cc1` yielded an inhibition of 46.7%.
Work on `CC(C)(C)NC(=O)NC(=O)COC(=O)Cc1coc2ccc3ccccc3c12` yielded an inhibition of 8.56%.
In the case of `COc1ccc(C2C(C#N)=C(C)NC3=C2S(=O)(=O)c2ccccc23)cc1` (configuration not stated), the inhibition is reported as 17.7%.
With `COc1ccc(N2CCN(c3c(S(=O)(=O)c4ccccc4)cnc4ccc(OC)cc34)CC2)cc1` the inhibition was 30.7%.
With `CN1CCN(C2=Cc3ccccc3Sc3cc(F)c(Cl)cc32)CC1` the inhibition was 96.7%.
`O=C(CCCCCn1c(=S)[nH]c2cc3c(cc2c1=O)OCO3)N1CCN(C(=O)c2ccco2)CC1` showed an inhibition of -5.4%.
In the case of `Cc1ccc(NC(=O)c2nc[nH]c2C(=O)N[C@@H](C)c2ccccc2)cc1`, the inhibition is reported as 65.2%.
Compound `C=CCc1ccc(O)c(-c2ccc(O)c(CC=C)c2)c1` has an inhibition of 25.5%.
`CCN(CC)c1ccc(/C=C(\C#N)c2ccccn2)cc1` gave an inhibition of 24.4%.
Compound `O=C(Nc1nnc(C2=COCCO2)o1)c1ccc(Cl)cc1` has an inhibition of 39.4%.
`S=C(NCCCN1CCOCC1)N1CCN(c2nc(-c3ccc(Cl)cc3)cs2)CC1` showed an inhibition of 44.1%.
Work on `CC(C)CCNC(=O)CCCOc1cc(=O)n(C)c2ccccc12` yielded an inhibition of 12.1%.
With `Cc1cc(Cl)cc(C)c1OCCCCn1ccnc1` the inhibition was 68.1%.
With `CCCCC(=O)NC(c1ccc([N+](=O)[O-])cc1)c1c(O)ccc2ccccc12` (configuration not stated) the inhibition was 23.8%.
Work on `O=C(Nc1nc(-c2cccs2)c(C(=O)C(F)(F)F)s1)c1ccccc1` yielded an inhibition of 16.3%.
For `COCC(C)NC(=S)NCCc1ccc(Cl)cc1Cl` (configuration not stated), the inhibition was 35.1%.
In the case of `c1ccc(-c2nnn(C34CC5CC(CC(C5)C3)C4)n2)cc1`, the inhibition is reported as 59.3%.
Compound `O=C(c1ccc(Cn2c(=S)[nH]c3ccc(Br)cc3c2=O)cc1)N1CCN(C2CCCCC2)CC1` has an inhibition of 52.9%.
For `Cc1cc(=O)n2[nH]c(-c3ccc(F)cc3)cc2n1`, the inhibition was 5.26%.
`CCCCCCc1nc2ccccc2c(=O)n1NC(=O)c1c(O)c2cccc3c2n(c1=O)CCC3` gave an inhibition of -4.38%.
`CC(C)(C)C(=O)NC(=S)NNC(=O)c1ccc(-c2ccccc2)cc1` showed an inhibition of 27.6%.
For `COc1ccc2nc(NC(=O)c3cccc(OCc4c(C)noc4C)c3)sc2c1`, the inhibition was 15.8%.
With `COc1ccc(-n2c(-c3ccc(Br)cc3)nc(=S)c3c2CCCC3)cc1` the inhibition was 23%.
Compound `CCN1/C(=C/c2sc(-c3ccccc3C)c[n+]2C)Sc2ccccc21` has an inhibition of 73.2%.
Compound `CCN(CC)S(=O)(=O)c1cc(C(=O)Nc2cc(Cl)ccc2N2CCN(C)CC2)ccc1Cl` has an inhibition of 40.3%.
Work on `COc1ccc(Cc2nn[nH]n2)cc1` yielded an inhibition of -4%.
Work on `COc1ccc(/C(C)=N/NC(=S)Nc2cc(C)ccc2C)cc1` yielded an inhibition of 54.4%.
With `COc1cc(OC)c2c(c1)C(=O)c1cc(OC)cc(OC)c1C2=O` the inhibition was 11%.
In the case of `Cc1ccc(C2=CC(C)(c3ccc(C)cc3)Nc3nc(C(F)(F)F)nn32)cc1` (configuration not stated), the inhibition is reported as -1.57%.
With `CSc1cccc(NC(=O)/C=C/c2cccc(Cl)c2)c1` the inhibition was 72.5%.
With `Cc1ccc(OCc2n[nH]c(=S)n2C2CCCCC2)cc1` the inhibition was 39.2%.
Compound `O=[N+]([O-])c1ccc(Nc2c3ccccc3nc3ccccc23)cc1` has an inhibition of 24.7%.
`Cc1ccc(NC(CNS(=O)(=O)c2ccc(Cl)cc2)c2ccccc2)cc1` (configuration not stated) showed an inhibition of 37.4%.
`Cn1c(CN2CCCCC2)nc2cc(NC(=O)c3ccc(Cl)cc3)ccc21` gave an inhibition of -22.7%.
Work on `Cc1nn(-c2ccccc2)c(Cl)c1/C=N/NS(=O)(=O)c1ccc(Br)cc1` yielded an inhibition of 28.4%.
For `Cc1ccc(S(=O)(=O)N2CCN(c3ccnc4cc(Cl)ccc34)CC2)cc1C`, the inhibition was 58.1%.
`C/C(=N\NC(=S)NC1CCCCC1)c1ccc(OC(F)F)cc1OC(F)F` showed an inhibition of 28%.
`CCOC(=S)SCC(=O)Nc1nc(-c2ccc(Br)cc2)cs1` gave an inhibition of 56.6%.
Work on `O=[N+]([O-])c1ccc(N/N=C2/CCCCC2c2ccccn2)cc1` (configuration not stated) yielded an inhibition of 65.4%.
Work on `COc1cccc(C2=CC(c3ccccc3)n3nnnc3N2)c1` (configuration not stated) yielded an inhibition of 2.51%.
`Cc1cc(C)c(NC(=O)c2cc3c(nc4sccn43)s2)c(C)c1` showed an inhibition of 69%.
`CCOC(=O)C1=C(C)N=C2SC(C(=O)OC)=CC(=O)N2C1c1ccc(OC)cc1` (configuration not stated) gave an inhibition of 70.4%.
In the case of `Cc1cccc2sc(NC(=O)c3ccc(NS(=O)(=O)c4cccs4)cc3)nc12`, the inhibition is reported as -18.8%.
For `CC(C)(C)n1nnnc1C(c1cccnc1)N(Cc1ccccc1)Cc1cccs1` (configuration not stated), the inhibition was 25.6%.
`O=C(Nc1cccc(C(F)(F)F)c1)c1cccnc1NCCc1ccccc1` showed an inhibition of 64.3%.
`CC(C)N=c1scc(-c2cccs2)n1/N=C/c1ccc(O)c(O)c1O` gave an inhibition of 29.2%.
`O=C(Nc1ccc(Cl)cn1)C1C(c2ccccc2)C1(Cl)Cl` (configuration not stated) gave an inhibition of 51.8%.
`COc1ccc(C2c3c(ncn(Cc4ccco4)c3=N)Oc3ccc4ccccc4c32)cc1` (configuration not stated) showed an inhibition of 4.07%.
`Cc1ccccc1-c1nnc(SCc2ccc(F)cc2)o1` gave an inhibition of 32.6%.
For `Cc1ccc(C)c(NC(=O)c2ccccc2NS(=O)(=O)c2cc([N+](=O)[O-])ccc2C)c1`, the inhibition was 53.5%.
`O=C(OCc1nnc(-c2ccccc2)o1)C12CC3CC(CC(Br)(C3)C1)C2` gave an inhibition of 13.7%.
Work on `COc1ccc(C2=Nc3cccc4cccc(c34)N2)cc1` yielded an inhibition of -4.93%.
With `CC1(c2ccccc2)CC(C)(C)N2C(=O)/C(=C3\SC(=S)NC3=O)c3cccc1c32` (configuration not stated) the inhibition was 24.8%.
`COc1ccc(C(=O)Nc2ccc(Cl)cc2C(=O)NCCN2CCOCC2)cc1` showed an inhibition of 11.8%.
`CC(C)(C)NC(=O)C(c1ccco1)N(C(=O)Cn1nnc(-c2ccc(F)cc2)n1)c1ccccc1F` (configuration not stated) gave an inhibition of 36.5%.
`CCOc1ccccc1OCCCOc1ccc(C)cc1Br` showed an inhibition of 39.4%.
In the case of `CN(C)CCCN1c2ccccc2CCc2ccc(Cl)cc21`, the inhibition is reported as 38%.
Compound `CCOC(=O)c1sc(NC(=O)CSc2n[nH]c(-c3ccc(Cl)cc3Cl)n2)c(C#N)c1C` has an inhibition of 38.8%.
With `Cc1ccc(C(=O)/C=C/c2cn(CN3CCN(C)CC3)c3ccccc23)cc1` the inhibition was 78.2%.
Compound `COCCN1Cc2cccc(C(=O)NC3CCCCCC3)c2C1=O` has an inhibition of 60.8%.
Work on `Brc1ccc(/C=N/Nc2ccc3ccccc3n2)cc1` yielded an inhibition of 32.7%.
For `Fc1ccc(NC(=S)Nc2ccccc2N2CCOCC2)cc1Cl`, the inhibition was 43%.
With `CS(=O)(=O)N(CC(=O)NCc1ccc2c(c1)OCO2)c1ccc(Cl)cc1` the inhibition was 29.1%.
`CC1CCN(C(=O)/C=C/c2ccc(C(C)(C)C)cc2)CC1` gave an inhibition of -12.7%.
In the case of `O=C(Nc1ccc(Cl)c(Cl)c1)OCc1cccnc1`, the inhibition is reported as 78.7%.
Compound `O=C(Nc1ccccc1)Nc1ccc(C(=O)N2CCCC2)cc1` has an inhibition of 61.6%.
With `C=CCNCCCOc1ccc(Cl)cc1C(C)(C)C` the inhibition was 73.2%.
In the case of `CCc1ccc(NC(=S)Nc2cccc3cnccc23)cc1`, the inhibition is reported as 54.5%.
For `CC(/C=C1\SC(=S)N(NC(=O)c2cccc(O)c2)C1=O)=C\c1ccccc1`, the inhibition was 82.3%.
In the case of `C=CCCCCCCCCc1nc(=S)[nH][nH]1`, the inhibition is reported as 48.2%.
With `COc1cccc(CC2(CO)CCCN(Cc3[nH]c4ccc(C)cc4c3C)C2)c1` (configuration not stated) the inhibition was 64%.
For `CC1(C)C=Cc2c(c3c(c4c(=O)c(-c5ccc(O)cc5)coc24)OC(C)(C)CC3)O1`, the inhibition was 34.4%.
With `CCn1cc(C(=O)OCC(=O)OC2CC(C)CCC2C(C)C)c(=O)c2ccc(C)nc21` (configuration not stated) the inhibition was 27.5%.
Work on `Clc1ccc(OCCSCc2nc3ccccc3[nH]2)cc1` yielded an inhibition of 70.7%.
`Cc1cccc(Nc2nc(-c3cccs3)cs2)n1` showed an inhibition of 45.5%.
Work on `O=C(OC1CCN(c2ncc(C(F)(F)F)cc2Cl)CC1)c1ccccc1` yielded an inhibition of 34%.
For `CN(C)c1ccc(O)c2c1CC1CC3[C@@H](N(C)C)C(=O)C(C(N)=O)=C(O)[C@]3(O)C(=O)C1=C2O` (some centres not stated), the inhibition was 6.78%.
For `CC(Cl)C(=O)NNc1cccc(Cl)n1` (configuration not stated), the inhibition was -0.4%.
`COc1cccc(NC(=O)CSc2nc3c(c(-c4ccco4)c2C#N)CCCC3)c1` showed an inhibition of 75.2%.
In the case of `S=C(NC1CCCCC1)N(CCc1ccccc1)CCc1ccccc1`, the inhibition is reported as 3.44%.
